From PubChem BioAssay AID1240 (Sanford-Burnham Center for Chemical Genomics, 2008)
Among all 50,000 compounds or so, about 800 (1.6%) showed an effect of 50% or more. Some of the results follow.

The compounds below were run against Bcl-2-like protein 10 (Homo sapiens) (UniProt Q9HD36) (assay: Phenotype converters, Bcl-B/TR3 peptide binding displacement, primary biochemical FP (AID 1240;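 further: 0% = Bcl-B with tracer peptide and DMSO and 100% = tracer peptide lacking Bcl-B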)). Conditions: GST-Bcl-B / FITC-TR3 peptide fluorescence polarization; stronger effect = higher value; compound at 3.75 mg/L.
Chain of UniProt Q9HD36 (Q9HD36 whole entry, looked up): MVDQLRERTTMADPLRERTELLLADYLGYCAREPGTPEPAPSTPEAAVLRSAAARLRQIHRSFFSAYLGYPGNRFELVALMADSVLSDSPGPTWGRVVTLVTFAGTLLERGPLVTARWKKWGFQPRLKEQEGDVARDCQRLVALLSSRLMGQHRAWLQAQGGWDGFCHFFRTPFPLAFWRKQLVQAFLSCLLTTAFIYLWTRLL

| SMILES | displacement [%] |
| --- | --- |
| CN(C)CCN1C(=O)C(=O)/C(=C(/O)c2ccccc2)C1c1ccc(O)cc1 (stereo not given) | -17.1 |
| COc1cc(C2C3C(=O)N(c4ccccc4C(F)(F)F)C(=O)C3ON2c2ccccc2)ccc1O (stereo not given) | -8.4 |
| COc1cc(/C=C2\C(=O)NC(=O)N(C)C2=O)ccc1OCc1ccc(C(=O)O)cc1 | 5.5 |
| CSc1ccc(S(=O)(=O)N(CC(=O)Nc2cccc(Br)c2)c2ccc(C)cc2)cc1 | 12.6 |
| COc1ccc(OC)c(NC(=O)C2C3CCC(C3)C2C(=O)O)c1 (stereo not given) | 15.9 |
| CC1=C(C(=O)OCCc2ccccc2)C(c2cccc(Cl)c2)CC(=O)N1 (stereo not given) | 3.9 |
| COc1ccc(C(=O)c2c(C)oc3c2cc(OC)c2ccccc23)cc1 | -4.9 |
| COc1cccc(OC)c1C(=O)NNC(=O)c1cccc(Cl)c1 | -5.4 |
| CCCOC(=O)c1ccc(NC(=O)C(c2ccccc2)c2ccccc2)cc1 | 3.5 |
| O=C1C=CC(=NS(=O)(=O)c2ccc(F)cc2)C=C1 | -9.6 |
| CC1=C(C#N)C(c2cc3c(cc2[N+](=O)[O-])OCO3)C2=C(CC(C)(C)CC2=O)N1 (stereo not given) | -1.9 |
| COc1ccc(N(CC(=O)NCCSc2nc3ccccc3s2)S(=O)(=O)c2ccccc2)c(OC)c1 | 10.6 |
| Cc1ccc(NC(=O)c2ccc(CN(c3ccccc3)S(C)(=O)=O)cc2)cc1Cl | -14.3 |
| CN(C)c1ccc(/C=C/C=C2/SC(N)=NC2=O)cc1 | -17.2 |
| CCOC(=O)c1c(N2C(=O)C3CC(C)=C(C)CC3C2=O)sc2c1CCCC2 (stereo not given) | -13.4 |
| N#CC1=C(SCC(=O)Nc2ccc(Cl)cc2)NC(=O)CC1c1ccccc1Cl (stereo not given) | -6.5 |
| O=[N+]([O-])c1cccc(N/N=C/c2ccc3c(c2)OCO3)c1 | -11.3 |
| O=S(=O)(Oc1ccccc1)c1ccc(F)cc1 | -1.2 |
| CCn1cc(C(=O)O)c(=O)c2cc(-c3ccco3)ccc21 | 18.2 |
| Cc1sc2nc(SCC(=O)NCc3ccco3)[nH]c(=O)c2c1C | -10.3 |
| O=C1c2ccc(-c3nc4ccccc4o3)cc2C(=O)N1CC1CCCO1 (stereo not given) | 11.1 |
| CCOc1cc(/C=N/NC(=O)c2ccncc2)ccc1OC(=O)c1ccco1 | 6.5 |

| SMILES | displacement [%] |
| --- | --- |
| CCC(=O)Nc1cc(-c2nc3ncccc3o2)ccc1C | -1.8 |
| O=C(NC(=S)Nc1ccc(NC(=O)c2ccco2)cc1)c1ccc(Cl)cc1 | -16.3 |
| COc1cccc(C(=O)Nc2sc(C)c(C)c2C(N)=O)c1 | 5.8 |
| O=C1c2ccccc2-c2onc3ccc(Cl)c1c23 | 40.4 |
| COc1ccc(CC(=O)N2CCN(c3ccccc3)CC2)cc1OC | 9 |
| CC(=O)c1c(N2CCCCC2)nc(=S)n(-c2ccccc2)c1C | 0.5 |
| CC(C)CC(=O)N1CCN(CCCc2ccccc2)CC1 | 5.5 |
| CCOc1ccccc1C(=O)Nc1cc(C(F)(F)F)ccc1Cl | 1.5 |
| Clc1ccc(C2NN=C(c3ccccc3)S2)cc1 (stereo not given) | 0 |
| C#Cc1cccc(NC(=O)CN2C(=O)c3ccccc3C2=O)c1 | -4.5 |
| O=C(N/N=C/c1ccc2c(c1)OCO2)c1sc2cc(Cl)ccc2c1Cl | 8.9 |
| CC(C)CCN(CCC(C)C)C(CO)(CO)CO | -4.2 |
| Cc1cccc(NS(=O)(=O)c2ccc(Cl)cc2)n1 | -10.3 |
| CC1CCCCN1C(=O)/C=C/c1ccc(F)cc1 (stereo not given) | 6.3 |
| COc1ccc2c(=O)c(-c3ccccc3OC)coc2c1 | 11.8 |
| O=C(NCCOc1ccccc1F)c1ccccc1SCc1ccc(F)cc1 | -5.2 |
| O=C(NCCO)c1ccc(CSc2nc3sc4c(c3c(=O)[nH]2)CCCC4)cc1 | 7.3 |
| O=C(COc1ccc(Br)cc1)NCc1ccc(F)cc1 | 4.6 |
| O=C(c1ccccc1Cl)N1N=C(c2ccccc2)CC1(O)C(F)(F)F (stereo not given) | -3.3 |
| Nn1c(-n2nc(-c3ccccc3)cc2-c2ccccc2)n[nH]c1=S | -20.2 |
| CC1CCc2cc(F)ccc2N1C(=O)COc1ccc(Cl)cc1 (stereo not given) | -15.3 |
| Clc1ccccc1C=Nc1ccc(-c2nnc(-c3ccccc3)o2)cc1 | 14.5 |

| SMILES | displacement [%] |
| --- | --- |
| CC(C)(Oc1ccc(CCNC(=O)c2ccc(-c3ccc(Cl)cc3)o2)cc1)C(=O)O | -7.6 |
| COc1ccc(/C=C/C(=O)N2CCC(C)CC2)cc1Br | 13.2 |
| COC(=O)c1ccccc1NC(=O)CN(c1ccc(C)cc1)S(=O)(=O)c1ccc(SC)cc1 | -4.5 |
| COc1ccc(CC(=O)Nc2cccc(-c3nc4ccccc4s3)c2)cc1OC | 0.3 |
| COc1ccc(C(=O)Nc2cccc(NC(=O)c3ccccc3Br)c2)cc1[N+](=O)[O-] | 4.7 |
| COc1ccccc1/C=C/C(=O)c1ccc(F)cc1 | -0.2 |
| CCOc1ccc(-c2nc3cc(NC(=O)c4cccc([N+](=O)[O-])c4C)ccc3o2)cc1 | 5.3 |
| O=[N+]([O-])c1ccc(N2CCCC2)c(Cl)c1N1CCCC1 | 4.2 |
| O=c1c2c([nH]n1-c1ccccc1)CCC2 | -1.6 |
| Cc1cccc(-n2c(C)cc(/C=C3/SC(=O)NC3=O)c2C)c1 | -10.9 |
| CCOC(=O)c1cccc(NC(=O)C(C)Oc2ccc(Cl)cc2C)c1 (stereo not given) | 3.8 |
| COc1ccc(OC)c(N(CC(=O)Nc2cc(C)cc(C)c2)S(C)(=O)=O)c1 | 13.6 |
| O=C1c2cccc3cccc(c23)C(=O)N1CC1CCN(S(=O)(=O)c2cccs2)CC1 | 11.7 |
| COc1ccc(/C=C2\C(=O)N(c3ccc(S(N)(=O)=O)cc3)N=C2C)cc1Br | -14 |
| C=CCN1C(=O)/C(=C\C(C)=C\c2ccccc2)SC1=S | 19.4 |
| O=C(O)c1c2c(nc3ccccc13)CCCCC2 | -0.9 |
| CCOC(=O)/C(=C\Nc1ccc(F)c(F)c1)[N+](=O)[O-] | -4.8 |
| C(#CC12CC3CC(CC(C3)C1)C2)CN1CCOCC1 | -3.1 |
| O=C(CN(c1cccc([N+](=O)[O-])c1)S(=O)(=O)c1ccccc1)Nc1ccccc1Br | -0.5 |
| CC(=O)Nc1ccc(S(=O)(=O)N2c3ccccc3C(C)=CC2(C)C)cc1 | 27.5 |
| CC(=O)Nc1sc2c(c1C(=O)Nc1ccc(Br)cc1)CCCC2 | 22.4 |
| COc1ccc(CNC(=O)c2ccc(F)cc2)cc1 | -7.4 |

| SMILES | displacement [%] |
| --- | --- |
| CN(C)S(=O)(=O)N=C1C=CC(=NS(=O)(=O)N(C)C)C=C1 | 12.2 |
| COC(=O)C1=NNC2C(=O)N(c3ccc(Cl)cc3)C(=O)C12 (stereo not given) | -5.1 |
| CCCOC(=O)c1c(N)sc2c1CCC2 | 6.2 |
| CCOc1cc(C(=O)Nc2sc(C(=O)N(CC)CC)c(C)c2C(=O)OC(C)C)cc(OCC)c1OCC | 5.2 |
| O=C1N/C(=N/N=C/c2ccco2)SC1Cc1ccc(Cl)cc1Cl (stereo not given) | 3.9 |
| Cc1ccc(C)c(Nc2nc3ccccc3c3ccccc23)c1 | 2.2 |
| CCOC(=O)C(=O)NCc1ccc(Cl)cc1 | 11.2 |
| Nc1ncnc(Nc2ccc3ccccc3c2)c1[N+](=O)[O-] | 17 |
| Cc1[nH]n(-c2ccccc2)c(=O)c1/C=N/NC(=O)CSCc1ccc(Cl)cc1 | -19.5 |
| O=C1C(Nc2ccc(F)cc2)=CC(c2ccc([N+](=O)[O-])cc2)N1c1ccc(F)cc1 (stereo not given) | -0.8 |
| COC(=O)c1ccc2c(c1)C1C=CCC1C(c1ccc([N+](=O)[O-])cc1)N2 (stereo not given) | -4.6 |
| N#C/C(=C/c1cn(CC(=O)O)c2ccccc12)C(=O)Nc1cccc(Br)c1 | -3.6 |
| NC(=S)NNC(=O)COc1ccccc1 | -4 |
| O=[N+]([O-])c1cc(-c2nnc(-c3ccc(Cl)c([N+](=O)[O-])c3)o2)ccc1Cl | 6.8 |
| COc1ccc(/C=C(\NC(=O)c2ccccc2)C(=O)NCC(C)C)cc1OC | 11.2 |
| COc1ccc(-c2cc(=O)c3ccccc3o2)cc1 | 12.2 |
| Cc1ccccc1NC(=O)CCC(=O)N/N=C/c1cccs1 | 3.9 |
| CCCc1[nH]nc2c1C(c1ccccc1Br)C(C#N)=C(N)O2 (stereo not given) | 2.8 |
| N#C/C(=C\c1ccc(-c2ccccc2)o1)C(=O)N1CCCCCC1 | -52.8 |
| COc1ccc(N2C(=O)C3C4C=CC(C4=C(C)C)C3C2=O)c([N+](=O)[O-])c1 (stereo not given) | 11.2 |
| O=C(CCC1CCCCC1)Nc1ccc(S(=O)(=O)Nc2nccs2)cc1 | -7.2 |
| O=C(NCCNc1ccc([N+](=O)[O-])cc1Cl)c1cccc(Br)c1 | 10.8 |

| SMILES | displacement [%] |
| --- | --- |
| O=C(Nc1cccc(Cl)c1)c1ccc(CN2CCN(c3ccccc3)CC2)cc1 | 14 |
| CC(=O)NC1=NN(C(C)=O)C(c2ccc(F)cc2)S1 (stereo not given) | -9 |
| CCOC(=O)CNC(=O)C12CC3CC(C1)CC(c1ccc(C)cc1)(C3)C2 | -3.4 |
| COc1ccc(NC(=S)NC(=O)/C=C/c2ccc([N+](=O)[O-])cc2)cc1 | 29 |
| Cc1ccc(/C(N)=N/OC(=O)CCc2ccccc2)cc1 | 5 |
| COc1cc(/C=C(/NC(=O)c2ccccc2)C(=O)NN)cc(OC)c1OC | -4.8 |
| OC1CCNC(=S)N1c1ccccc1 (stereo not given) | 13.6 |
| O=C1CC(c2ccccc2)CC(O)=C1C=NCc1ccc(F)cc1 (stereo not given) | 10.7 |
| CCC(=O)NC(c1ccccc1Cl)c1c(OC(C)=O)ccc2ccccc12 (stereo not given) | -5.8 |
| CC1CCCC(C)N1C(=O)c1ccc(I)cc1 (stereo not given) | 2.2 |
| O=C(COc1ccccc1[N+](=O)[O-])Nc1ccc(N2CCOCC2)c(Cl)c1 | 12.3 |
| CC(=O)Nc1cccc(NC(=O)c2cccc(I)c2)c1 | -1.5 |
| COc1ccc(NC(=O)Nc2ccc(Cl)c(Cl)c2)cc1 | -4.4 |
| O=C(c1nn2c(c1Cl)NC(c1ccccc1)CC2C(F)(F)F)N1CCN(c2ccc(F)cc2)CC1 (stereo not given) | 10 |
| CCOC(=O)c1c(-c2ccc(Br)cc2)csc1NC(=S)NC(C)=O | 7 |
| COc1ccc(C2Nc3ccccc3C(=O)N2Cc2ccco2)cc1Cn1cc([N+](=O)[O-])cn1 (stereo not given) | 15.2 |
| Cn1ncc(Cl)c1C(=O)N(C(=O)c1c(Cl)cnn1C)c1ncccn1 | -53.3 |
| COc1ccc(Cl)cc1C(=O)Nc1cccc(Br)c1 | 14.5 |
| COc1cc(OC)c(OC)cc1CN1CCN(C(=O)c2cccs2)CC1 | -9.9 |
| O=C(N=Nc1c(O)[nH]c(=O)[nH]c1=O)c1ccc2c(c1)OCO2 | 49.9 |
| COC(=O)c1ccccc1NS(=O)(=O)c1cccs1 | 0.8 |
| Cc1ccc(NC(=O)/C=C/c2ccccc2)c([N+](=O)[O-])c1 | 2.8 |
